According to the supplement of paper PMC4967469:
Lines with a small IC50 respond at low doses; a limit (>, <) means that the fit lies beyond the doses tested. AUC is the area under the same curve over the 256-fold range up to the top dose, as a fraction; values near 1 show little effect. For some of these results: A top dose marked as inferred was calculated from the reported fits.

Assays:
Assay in all cases: Viability of human cancer cell lines after 72 h of drug (GDSC screen)
Midostaurin = compound: CO[C@@H]1[C@H](N(C)C(=O)c2ccccc2)C[C@H]2O[C@]1(C)n1c3ccccc3c3c4c(c5c6ccccc6n2c5c31)C(=O)NC4 [Midostaurin]; conditions: top dose 0.512 µM; top dose inferred
Method: (§1)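 Human cancer cell lines in 384-well plates, medium with 10% serum, drug for 72 h over a 256-fold dose range (nine 2-fold or five 4-fold steps up to the top dose). Adherent lines were fixed and stained with the nucleic acid dye Syto60, suspension lines read with resazurin; signal relative to control wells, capped at 0 and 100%. One two-parameter sigmoid per drug and line, fitted in a mixed model over all curves with the slope shared within a line.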

Bosutinib = compound: COc1cc(Nc2c(C#N)cnc3cc(OCCCN4CCN(C)CC4)c(OC)cc23)c(Cl)cc1Cl [Bosutinib]; conditions: top dose 2 µM
Method: as §1

NVP-BHG712 = compound: Cc1ccc(C(=O)Nc2cccc(C(F)(F)F)c2)cc1Nc1nc(-c2cccnc2)nc2c1cnn2C [NVP-BHG712]; conditions: top dose 10.24 µM; top dose inferred
Method: as §1

IOX2 = compound: O=C(O)CNC(=O)c1c(O)c2ccccc2n(Cc2ccccc2)c1=O [IOX2]; conditions: top dose 0.1 µM; top dose inferred
Method: as §1

| Cell Line | AUC (Midostaurin) | IC50 (Midostaurin) [nM] | AUC (Bosutinib) | IC50 (Bosutinib) [nM] | AUC (NVP-BHG712) | IC50 (NVP-BHG712) [nM] | AUC (IOX2) | IC50 (IOX2) [nM] |
| --- | --- | --- | --- | --- | --- | --- | --- | --- |
| A431 (skin, adherent) | 0.715 | 126 | 0.878 | 1880 | 0.876 | 9420 | 0.965 | > 100 |
| CAL-62 (thyroid, adherent) | 0.888 | > 512 | 0.859 | 1540 | 0.932 | > 10200 | 0.94 | > 100 |
| COLO-205 (large intestine, suspension) | 0.743 | 157 | 0.962 | > 2000 | 0.849 | 7500 | 0.986 | > 100 |
| COLO-679 (melanoma, adherent) | 0.918 | > 512 | 0.985 | > 2000 | 0.934 | > 10200 | 0.983 | > 100 |
| Ca9-22 (head and neck, adherent) | 0.975 | > 512 | 0.863 | 1520 | 0.926 | > 10200 | 0.987 | > 100 |
| Ca-Ski (cervix, adherent) | 0.906 | > 512 | 0.684 | 437 | 0.854 | 9690 | 0.981 | > 100 |
| Daoy (medulloblastoma, adherent) | 0.919 | > 512 | 0.941 | > 2000 | 0.98 | > 10200 | 0.988 | > 100 |
| HCC1806 (breast, adherent) | 0.947 | > 512 |  |  | 0.944 | > 10200 | 0.988 | > 100 |
| HCC-44 (lung adenocarcinoma, adherent) | 0.741 | 153 | 0.986 | > 2000 | 0.841 | 6910 | 0.984 | > 100 |
| HSC-2 (head and neck, adherent) | 0.805 | 234 | 0.918 | > 2000 | 0.975 | > 10200 | 0.964 | > 100 |
| HSC-3 (head and neck, adherent) | 0.886 | 424 |  |  | 0.976 | > 10200 | 0.989 | > 100 |
| HeLa (cervix, adherent) | 0.898 | > 512 |  |  | 0.981 | > 10200 | 0.988 | > 100 |
| Hs746T (stomach, adherent) | 0.972 | > 512 | 0.967 | > 2000 | 0.939 | > 10200 | 0.978 | > 100 |
| KP-1N (pancreas, adherent) | 0.845 | 397 | 0.97 | > 2000 |  |  | 0.976 | > 100 |
| KP-2 (pancreas, adherent) | 0.959 | > 512 | 0.978 | > 2000 | 0.947 | > 10200 | 0.985 | > 100 |
| KP-3 (pancreas, adherent) | 0.86 | > 512 | 0.899 | > 2000 | 0.869 | > 10200 | 0.962 | > 100 |
| KP-4 (pancreas, adherent) | 0.826 | 292 |  |  | 0.985 | > 10200 | 0.987 | > 100 |
| LN-229 (glioma, adherent) | 0.97 | > 512 | 0.941 | > 2000 | 0.973 | > 10200 | 0.987 | > 100 |
| LOXIMVI (melanoma, semi-adherent) | 0.953 | > 512 |  |  | 0.906 | > 10200 | 0.989 | > 100 |
| LoVo (large intestine, adherent) | 0.892 | > 512 | 0.877 | > 2000 | 0.895 | > 10200 | 0.98 | > 100 |
| MG-63 (osteosarcoma, adherent) | 0.75 | 190 | 0.981 | > 2000 | 0.984 | > 10200 | 0.979 | > 100 |
| NB1 (neuroblastoma, semi-adherent) | 0.984 | > 512 | 0.962 | > 2000 | 0.876 | > 10200 | 0.981 | > 100 |
| NCI-H358 (lung adenocarcinoma, adherent) | 0.799 | 277 | 0.914 | > 2000 | 0.823 | 6970 | 0.982 | > 100 |
| RT-112 (bladder, adherent) | 0.815 | 310 |  |  | 0.908 | > 10200 | 0.983 | > 100 |
| SU-DHL-10 (B-cell lymphoma, suspension) | 0.828 | 202 |  |  | 0.651 | 1480 | 0.997 | > 100 |
| T-24 (bladder, adherent) | 0.914 | > 512 |  |  | 0.966 | > 10200 | 0.983 | > 100 |
| U251 (glioma, adherent) |  |  | 0.988 | > 2000 | 0.912 | > 10200 | 0.94 | > 100 |
| UACC-62 (melanoma, adherent) |  |  | 0.981 | > 2000 | 0.939 | > 10200 | 0.986 | > 100 |
| UWB1.289 (ovary, adherent) |  |  | 0.916 | > 2000 | 0.887 | > 10200 | 0.951 | > 100 |
| YH-13 (glioma, adherent) |  |  | 0.972 | > 2000 | 0.94 | > 10200 | 0.984 | > 100 |
